Results are given in words; binding and its absence hold for the method and conditions named. Some binding calls cover weakened binding; strength is not graded here. Sequences can lack the tags named with a protein.
Biological target: GAL4 DNA-binding domain-fused full-length androgen receptor (AR), pBIND vector (UniProt P10275)
Experiment: two-hybrid; mammalian two-hybrid in HEK 293 cells: VP16-PAK6 full length or deletion mutants (pACT), GAL4 DBD-AR (pBIND), pG5-Luc reporter, renilla control; androgen treatment not stated for this panel

Protein sequences, listed by entry. Tags and fused reporters are not part of them.
UniProt P10275: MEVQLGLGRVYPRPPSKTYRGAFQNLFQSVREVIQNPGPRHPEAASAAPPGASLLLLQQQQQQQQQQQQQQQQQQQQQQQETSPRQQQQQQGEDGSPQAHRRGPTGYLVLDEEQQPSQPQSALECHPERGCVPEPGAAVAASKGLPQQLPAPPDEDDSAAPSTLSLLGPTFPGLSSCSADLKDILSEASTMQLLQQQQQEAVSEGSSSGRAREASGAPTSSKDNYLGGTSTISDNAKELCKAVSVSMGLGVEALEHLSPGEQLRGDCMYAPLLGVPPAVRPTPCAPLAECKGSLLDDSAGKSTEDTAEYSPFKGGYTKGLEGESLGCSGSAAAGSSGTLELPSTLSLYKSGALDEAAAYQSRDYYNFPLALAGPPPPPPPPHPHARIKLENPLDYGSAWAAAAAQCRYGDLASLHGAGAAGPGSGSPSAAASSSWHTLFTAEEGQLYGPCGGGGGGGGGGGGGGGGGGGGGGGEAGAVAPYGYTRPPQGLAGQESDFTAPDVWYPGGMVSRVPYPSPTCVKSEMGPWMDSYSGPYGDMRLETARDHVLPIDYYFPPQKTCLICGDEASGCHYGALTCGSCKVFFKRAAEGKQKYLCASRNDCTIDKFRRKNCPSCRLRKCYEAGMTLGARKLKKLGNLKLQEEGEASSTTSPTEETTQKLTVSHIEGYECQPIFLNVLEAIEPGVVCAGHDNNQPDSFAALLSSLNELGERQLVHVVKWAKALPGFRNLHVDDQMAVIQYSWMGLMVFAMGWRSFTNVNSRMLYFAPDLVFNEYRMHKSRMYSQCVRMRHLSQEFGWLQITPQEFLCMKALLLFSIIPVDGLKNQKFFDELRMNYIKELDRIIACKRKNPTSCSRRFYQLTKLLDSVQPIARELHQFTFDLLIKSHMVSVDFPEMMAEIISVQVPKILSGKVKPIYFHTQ

binding: binds
B1: VP16-fused PAK6 Δ190 deletion mutant, pACT vector (domain or fragment, UniProt Q9NQU5 191-681)
chain: RCLQLGACLQSSPPGASPPTGTNRHGMKAAKHGSEEARPQSCLVGSATGRPGGEGSPSPKTRESSLKRRLFRSMFLSTAATAPPSSSKPGPPPQSKPNSSFRPPQKDNPPSLVAKAQSLPSDQPVGTFSPLTTSDTSSPQKSLRTAPATGQLPGRSSPAGSPRTWHAQISTSNLYLPQDPTVAKGALAGEDTGVVTHEQFKAALRMVVDQGDPRLLLDSYVKIGEGSTGIVCLAREKHSGRQVAVKMMDLRKQQRRELLFNEVVIMRDYQHFNVVEMYKSYLVGEELWVLMEFLQGGALTDIVSQVRLNEEQIATVCEAVLQALAYLHAQGVIHRDIKSDSILLTLDGRVKLSDFGFCAQISKDVPKRKSLVGTPYWMAPEVISRSLYATEVDIWSLGIMVIEMVDGEPPYFSDSPVQAMKRLRDSPPPKLKNSHKVSPVLRDFLERMLVRDPQERATAQELLDHPFLLQTGLPECLVPLIQLYRKQTSTC
